Consider 93 compounds from PubChem BioAssay AID360 (National Center for Advancing Translational Sciences (NCATS), 2006).

The whole screen tested about 48,000 compounds, of which about 550 (1.1%) were called active. Not shown: some 4% with an inconclusive outcome. Rule as the data show it: active = potency below about 15 µM; inconclusive = mostly about 16 µM to 33 µM; inactive = weaker than that. This is one part of the list. Bounds are passed on as bounds.
Potency is read from the fitted curve at half-maximal effect.

The test deals with Lysosomal acid glucosylceramidase (Homo sapiens) (UniProt P04062). Description: Glucocerebrosidase.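 Also: the screen sought inhibitors.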 Conditions: purified enzyme, resorufin glucoside fluorescence (screen aimed at inhibitors), 20 min. The gist of the method: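 Wild-type enzyme at 0.2 nM final in 50mM citric acid/KH2PO4, 10mM sodium taurocholate, 0.01% tween-20, pH 5.9, with resorufin beta-D-glucopyranoside at 30 uM final. Compounds titrated, 20 min at RT, red fluorescence read; AC50 from titration.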
UniProt P04062, sequence (P04062 whole entry, looked up): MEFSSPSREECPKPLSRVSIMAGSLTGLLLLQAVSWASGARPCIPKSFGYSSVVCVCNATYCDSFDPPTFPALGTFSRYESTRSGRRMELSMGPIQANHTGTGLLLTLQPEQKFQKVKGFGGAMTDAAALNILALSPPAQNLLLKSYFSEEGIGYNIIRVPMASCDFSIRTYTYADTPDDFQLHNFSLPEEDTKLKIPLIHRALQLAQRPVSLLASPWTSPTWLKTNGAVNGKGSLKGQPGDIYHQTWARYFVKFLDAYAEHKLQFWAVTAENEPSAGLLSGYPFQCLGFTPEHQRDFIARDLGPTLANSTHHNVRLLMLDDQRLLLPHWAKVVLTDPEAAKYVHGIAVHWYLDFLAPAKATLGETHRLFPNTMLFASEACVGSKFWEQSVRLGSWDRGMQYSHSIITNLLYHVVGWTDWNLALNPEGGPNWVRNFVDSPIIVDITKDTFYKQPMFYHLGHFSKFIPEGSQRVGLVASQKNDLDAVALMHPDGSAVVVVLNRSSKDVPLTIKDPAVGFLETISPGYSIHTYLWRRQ
On to `CC(=O)c1ccc(Nc2ncnc3c2oc2ccccc23)cc1`, for which the Potency is inactive: > 76.9 µM.

For `Cn1c(=O)[nH]c(=O)c2c1nc(N1CCOCC1)n2CC(O)COc1ccccc1` (stereo not drawn), the Potency was inactive: > 76.9 µM. Then `COC(=O)c1cc2oc(C)cc2n1CC(=O)Nc1cc(C)cc(C)c1`, with “inactive”. As to `COc1ccc(CCNC(=O)CC2Nc3cc(C)c(C)cc3NC2=O)cc1OC` (stereo not drawn), the Potency was inactive: > 76.9 µM. Consider `O=C(CCN1C(=O)c2ccncc2C1=O)NCc1ccc(Cl)cc1`, for which the Potency was inactive: > 76.9 µM.

For the compound `O=C(c1oc2ccccc2c1N1CCCCC1)N1CCCCC1`, the Potency is inactive: > 76.9 µM.

Consider `O=C(O)c1csc(Br)c1Br`, for which the Potency was inactive: > 76.9 µM.

For the compound `COC(=O)CSc1nnnn1-c1cccc2ccccc12`, the Potency was inactive: > 76.9 µM.

As to `Cc1cc(C)n(CCCNC(=O)c2ccc(S(=O)(=O)NCc3ccco3)cc2)n1`, the Potency was inactive: > 76.9 µM. Under `CCOC(=O)N1CCN(C(=O)c2ccc3nc4ccc(Cl)cc4c(=O)n3c2)CC1` stands inactive: > 76.9 µM; under `CC1=CC(C)(C)C(C(=O)O)C(C(=O)O)C1` (stereo not drawn), inactive: > 76.9 µM. For `CC(Sc1nncs1)C(=O)NCc1ccc2c(c1)OCO2` (stereo not drawn), the Potency is inactive: > 76.9 µM. Under `CN1C(c2ccc(F)cc2)=CS/C1=C(\C#N)c1nnc2n1-c1ccccc1SC2` stands inactive: > 76.9 µM; under `CCCN1CCN(CCCNC(=O)C2CCCN(c3nnc(-n4cccc4)s3)C2)CC1` (stereo not drawn), inactive: > 76.9 µM. Take `COc1ccc(-c2[nH]ncc2-c2ccc(Cl)cc2)c(O)c1`: the Potency was inactive: > 76.9 µM. Consider `Cc1ccc(-c2nnc3c4ccccc4c(C)nn23)cc1NC(=O)CN1CCOCC1`, for which the Potency was inactive: > 76.9 µM.

As for `Cc1oc2c(CN3CCCC3)c(O)ccc2c(=O)c1Oc1ccccc1Br`, the Potency result was “inactive”. Regarding `Cn1c(CNc2ccc(Cl)cc2)nnc1SCc1ccccc1`, the Potency was inactive: > 76.9 µM.

As to `CCn1c(C(=O)OC)cc2c1ccn2-c1ccc(F)cc1`, the Potency was inactive: > 76.9 µM. For the compound `COCCn1c(SCc2nnc(-c3ccccc3)o2)nc2sc3c(c2c1=O)CCC3`, the Potency is inactive: > 76.9 µM. Under `CCN(CC)S(=O)(=O)c1cc(C)c(C)cc1Br` stands inactive: > 76.9 µM; under `Cc1cc(C)c(C#N)c(N2CCCC(C(N)=O)C2)n1` (stereo not drawn), inactive: > 76.9 µM; under `Cc1ccc(S(=O)(=O)N2CCN(C(=O)C3CCCCC3)CC2)cc1`, inactive: > 76.9 µM.

As to `Cc1ccc(NS(=O)(=O)c2ccc(C)c(C(=O)N3CCN(C)CC3)c2)cc1`, the Potency was inactive: > 76.9 µM.

Consider `COc1ccc(Cl)cc1NC(=O)N1CCN(C2CCCCC2)CC1`, for which the Potency is inactive: > 76.9 µM. Then `COc1ccc(CCn2c(-c3ccco3)nc3nc4ccccc4nc32)cc1OC`, with inactive: > 76.9 µM; and `CC(C)Nc1nc(NC(C)C)nc(N(C)C#N)n1`, with inactive: > 76.9 µM; and `O=C(NCCCN1CCN(CCCNC(=O)c2ccc(F)cc2)CC1)c1ccc(F)cc1`, with inactive: > 76.9 µM.

On to `O=C(O)C1Cc2ccccc2CN1C(=O)c1ccccc1` (stereo not drawn), for which the Potency was inactive: > 76.9 µM. Then `c1ccc(CCc2nn3c(-c4ccncc4)nnc3s2)cc1`, with inactive: > 76.9 µM. For the compound `CCOC(=O)CCc1c(C)nc2cc(-c3ccc(Cl)cc3)[nH]n2c1=O`, the Potency was inactive: > 76.9 µM.

For the compound `O=C(Nc1ccc2c(c1)OCO2)c1ccc(Br)c(S(=O)(=O)N2CCCC2)c1`, the Potency was inactive: > 76.9 µM.

Consider `Cc1cccc2cc(COC(=O)c3cccnc3)c(=O)[nH]c12`, for which the Potency is inactive: > 76.9 µM. Under `Cc1nnc(SCc2nc3ccccc3s2)n1-c1ccccc1` stands inactive: > 76.9 µM. Turning to `CCN1CCN(CNC(=O)c2cnccn2)CC1`, the Potency is inactive: > 76.9 µM. Take `CCN(CC)S(=O)(=O)c1cc(C(=O)Nc2ccccn2)ccc1C`: the Potency is inactive: > 76.9 µM. In the case of `Cn1c(=S)n(/N=C/c2ccc3c(c2)OCO3)c2ccccc21`, the Potency was inactive: > 76.9 µM. For `O=C(CSc1ncccn1)Nn1cnnc1`, the Potency was inactive: > 76.9 µM. For `CCOCCCNC(=O)N[C@@H](Cc1ccccc1)C(=O)OC`, the Potency is inactive: > 76.9 µM.

On to `CCOc1cc(-c2noc(-c3ccncc3)n2)cc(Br)c1OC`, for which the Potency is inactive: > 15.4 µM. For the compound `CCCCSc1nnc(C)c(=O)[nH]1`, the Potency is inactive: > 76.9 µM. Under `c1ccc(-n2c(Sc3cnccn3)nnc2-c2cccs2)cc1` stands inactive: > 76.9 µM; under `CCOC(=O)C1CCN(c2c(NCCCN(CC)Cc3ccccc3)c(=O)c2=O)CC1`, inactive: > 76.9 µM.

Regarding `Cn1c(=O)c2c(nc(Br)n2Cc2c(F)cccc2Cl)n(C)c1=O`, the Potency was inactive: > 76.9 µM. Under `O=S1(=O)c2cccc3cccc(c23)N1Cc1nnc(-c2ccccc2Br)o1` stands inactive: > 76.9 µM; under `Cc1cc2c(cc1C)-c1nnnn1C(C)(C)C2`, inactive: > 76.9 µM. Turning to `CN(C)C=Nc1c(Br)cc(Br)c2nonc12`, the Potency is inactive: > 76.9 µM. Under `CS(=O)(=O)Nc1cccc(C(=O)CC2(O)C(=O)Nc3ccc(Br)cc32)c1` (stereo not drawn) stands inactive: > 76.9 µM; under `COCCCn1nnnc1SCC(=O)Nc1nc(C)c(C)s1`, inactive: > 76.9 µM; under `CSc1oc(-c2ccccc2)nc1C(N)=O`, inactive: > 76.9 µM. Turning to `Cc1cc(OCC(=O)Nn2cnnc2)c(C)cc1Br`, the Potency is inactive: > 76.9 µM. Regarding `Cc1nc2c([nH]c3ccc(Br)cc32)s1`, the Potency is inactive: > 76.9 µM. Then `COc1ccc(Cl)cc1NC(=O)N1CCN(CCc2ccccc2)CC1`, with inactive: > 76.9 µM; and `Cc1ccccc1CN1C2=NCCN2c2ccccc21`, with inactive: > 76.9 µM.

Take `COc1cccc(OCc2nc3ccccc3c(=O)n2N)c1`: the Potency is inactive: > 76.9 µM. Then `CCOc1cc(C)c(C(C)C)cc1S(=O)(=O)N1CC(C)OC(C)C1` (stereo not drawn), with inactive: > 76.9 µM; and `CC(=O)NC12CC3CC(C1)CC(C(=O)OCC(=O)NC(=O)c1cccn1C)(C3)C2`, with inactive: > 76.9 µM; and `CSc1nc2n(n1)C(c1cc(Br)ccc1F)C(C(=O)N(C)C)=C(C)N2` (stereo not drawn), with inactive: > 76.9 µM.

On to `CCOC(=O)c1cc(CC)sc1NC(=O)COC`, for which the Potency is inactive: > 76.9 µM. Under `CCOC(=O)Cc1csc(NC(=O)CCc2ccc(S(=O)(=O)N3CCOCC3)cc2)n1` stands inactive: > 76.9 µM; under `CCc1nnc(NC(=O)CSc2nnc(C)n2CC2CCCO2)s1` (stereo not drawn), inactive: > 76.9 µM; under `Cc1ccc(C(=O)CSc2nnc(CNc3ccc(C)cc3C)n2Cc2ccco2)cc1`, inactive: > 76.9 µM. Take `O=C(Nc1ccc(N2CCOCC2)cc1N1CCOCC1)c1ccco1`: the Potency was inactive: > 76.9 µM. Under `CCS(=O)(=O)N1CCN(C(=O)c2ccc(-c3ccccc3)cc2)CC1` stands inactive: > 76.9 µM; under `COc1ccc(NC(=O)CSc2nnc(CNC(=O)COc3ccc(Cl)cc3)o2)c(OC)c1`, inactive: > 76.9 µM; under `COc1ccc(OC)c(-n2nnnc2SCC(=O)NCc2ccc3c(c2)OCO3)c1`, inactive: > 76.9 µM. Then `Cc1cc(C)c(NC(=O)CSc2nnc(-c3ccco3)n2N)c(C)c1`, with inactive: > 76.9 µM; and `COC(=O)[C@H](C)NC(=O)Nc1ccc(Oc2ccccc2)cc1`, with inactive: > 76.9 µM.

Consider `Cc1cc(NC(=O)CSc2nnc3c(C)cc4ccccc4n23)no1`, for which the Potency is inactive: > 76.9 µM.

For the compound `CCn1c(CNC(=O)c2ccc(OC)c(OC)c2)nnc1SCC(=O)Nc1ccccc1`, the Potency is inactive: > 76.9 µM. Consider `Cc1cc(C)c2cc(CN(CCO)C(=O)Nc3ccc(Cl)cc3)c(=O)[nH]c2c1`, for which the Potency was inactive: > 76.9 µM. Turning to `CCS(=O)(=O)N1CCCC(C(=O)NCCCN2CCCC2=O)C1` (stereo not drawn), the Potency was inactive: > 76.9 µM. As to `CCC(=O)N(Cc1cc2cc(C)c(C)cc2[nH]c1=O)C1CCCCC1`, the Potency was inactive: > 76.9 µM. Under `Cc1nnc(SCC(=O)Nc2nsc(-c3ccccc3)n2)s1` stands inactive: > 76.9 µM. Then `COc1ccccc1CNC(=O)Cn1nnc(-c2ccncc2)n1`, with inactive: > 76.9 µM; and `COc1ccc(C2C(=O)N(CCc3ccccc3)CC(=O)N2C2CCCC2)cc1` (stereo not drawn), with inactive: > 76.9 µM. In the case of `O=C(Nc1ccccc1)N1CCCCC1c1cccnc1` (stereo not drawn), the Potency is inactive: > 76.9 µM. For `COc1ccc(NC(=O)C(NS(=O)(=O)c2ccc3c(c2)CCCN3C(C)=O)C(C)C)c(OC)c1` (stereo not drawn), the Potency is inactive: > 76.9 µM.

In the case of `C=CCn1c(C(C)NC(=O)CC)nc2ccccc21` (stereo not drawn), the Potency is inactive: > 76.9 µM. Then `Cc1ccc2cc(CN(Cc3ccccc3)Cc3nnnn3C3CCCC3)c(=O)[nH]c2c1`, with inactive: > 76.9 µM; and `Cc1cc(NC(=O)Nc2ccc(F)c(Cl)c2)no1`, with “inactive”; and `COC(=O)c1c(C)[nH]c(C(C)=O)c1C`, with inactive: > 76.9 µM. `Clc1ccc(Oc2nc(N3CCOCC3)nc(N3CCOCC3)n2)c(C2CCCCC2)c1`: the Potency is inactive: > 76.9 µM. In the case of `O=C(CCSc1ccc(F)cc1)Nc1ccc(-n2cnnn2)cc1`, the Potency entry was “inactive”. As for `O=C(CSCCc1ccccn1)Nc1cccnc1`, the Potency is inactive: > 76.9 µM. Under `CCOc1ccc(CCNC(=O)C(CC)n2nc(C)n3c(cc4sccc43)c2=O)cc1OCC` (stereo not drawn) stands inactive: > 76.9 µM. Under `CC(C)Cn1c(-c2cccs2)nc2nc3ccccc3nc21` stands inactive: > 76.9 µM; under `COc1ccc(CN2C(=O)CN=C2Nc2ccc(C)cc2C)cc1`, inactive: > 76.9 µM. Then `CCOc1ccc(N2CCCCn3c2nc2c3c(=O)[nH]c(=O)n2C)cc1`, with inactive: > 76.9 µM; and `COCCn1c(C)cc(C(=O)CSc2nc3ccccc3c(=O)[nH]2)c1C`, with inactive: > 76.9 µM. For the compound `O=C(CCN1C(=O)C2C3C=CC(C3)C2C1=O)Nc1ccccc1F` (stereo not drawn), the Potency is inactive: > 76.9 µM. Under `COc1ccc(S(=O)(=O)N(C)CC(=O)NC2CCCCC2)cc1OC` stands inactive: > 76.9 µM. `C/C(=C\C(=O)c1ccc(F)cc1)Nc1ccc(N2CCOCC2)cc1`: the Potency was inactive: > 76.9 µM.
